Data from PubChem BioAssay AID1460 (National Center for Advancing Translational Sciences (NCATS), 2008).
Hit rate of the full screen: of about 270,000 compounds, about 5,800 (2.1%) were called active. Not shown: some 16% with an inconclusive outcome. Calls follow the shape of the dose curve; as a rule, active = well fitted inhibition curve with a large enough effect; inconclusive = small, poorly fitted or top-dose-only effect; inactive = flat fitted curve, though single readings scatter. This is a selection; strong and weak results do not stand in their true shares. Some compounds were tested as several samples or in several runs, with calls that do not always agree.

target: Microtubule-associated protein tau (Homo sapiens) (UniProt P10636); assay: qHTS for Inhibitors of Tau Fibril Formation, Thioflavin T Binding; conditions: recombinant tau K18 P301L (four-repeat tau fragment), heparin-induced fibrillization, ThT fluorescence; series mostly up to 57.4 µM; activity, negative = inhibition: at the top concentration; also: nearly all actives have a fitted effect of over 55% in size
Sequence of UniProt P10636 (P10636 whole entry, looked up, the tested form may be a part): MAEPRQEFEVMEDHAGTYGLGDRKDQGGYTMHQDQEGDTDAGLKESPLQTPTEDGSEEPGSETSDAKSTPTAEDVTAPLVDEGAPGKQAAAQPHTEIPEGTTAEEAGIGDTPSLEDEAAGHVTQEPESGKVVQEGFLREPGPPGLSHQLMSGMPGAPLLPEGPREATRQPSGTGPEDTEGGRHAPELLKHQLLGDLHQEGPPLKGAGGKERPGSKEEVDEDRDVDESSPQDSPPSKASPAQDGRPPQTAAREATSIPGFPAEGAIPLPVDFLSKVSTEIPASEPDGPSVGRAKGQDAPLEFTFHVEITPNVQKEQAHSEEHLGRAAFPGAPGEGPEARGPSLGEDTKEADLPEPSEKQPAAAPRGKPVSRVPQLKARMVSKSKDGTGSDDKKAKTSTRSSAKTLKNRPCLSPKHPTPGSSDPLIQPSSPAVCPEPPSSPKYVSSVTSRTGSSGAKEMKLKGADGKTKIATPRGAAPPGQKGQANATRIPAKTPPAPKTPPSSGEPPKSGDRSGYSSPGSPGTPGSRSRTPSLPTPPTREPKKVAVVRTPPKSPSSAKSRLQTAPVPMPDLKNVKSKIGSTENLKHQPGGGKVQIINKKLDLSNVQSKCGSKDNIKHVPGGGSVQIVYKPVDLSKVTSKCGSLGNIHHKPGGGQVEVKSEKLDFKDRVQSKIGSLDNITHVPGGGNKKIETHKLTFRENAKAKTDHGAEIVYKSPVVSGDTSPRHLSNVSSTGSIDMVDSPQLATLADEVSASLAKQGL
Outline: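 Heparin-induced (20 uM) aggregation of recombinant human K18 P301L tau, 15 uM unlabeled with 0.24 uM labeled, pH 7 acetate buffer, 6 hr at 37 C with compound. Fibrils quantified by 30 uM ThT fluorescence after 1 hr ambient incubation.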
% is scaled to controls: 0 for no effect and ±100 for the full control effect; potency is read from the fitted curve at half-maximal effect.

SMILES	activity, negative = inhibition	Potency
Cc1ccsc1/C=C1\SC(N2CC(C)OC(C)C2)=NC1=O (stereo not given)	inactive: -6.21%	
CN(C)c1ccc(N=Cc2nc(-c3ccccc3)oc2OC(=O)c2cccc(Br)c2)cc1		active: 10 µM
Cc1cccc(COC[C@H](Cc2ccccc2)N2CCN(C(=O)c3cccc(C)c3)CCC2=O)c1	inactive: -10.1%	
COCCN1C=C2C(=O)C(C)(OC(=O)c3cccs3)C(=O)C=C2C=C1CCCC(=O)OC (stereo not given)	inactive: 8.54% [at 11.5 µM]	
CC1(C)OCC([C@H](O)C2=CCCCC2=O)CO1	inactive: -8.38% [at 11.5 µM]	
CC(C)(Oc1ccc(Cl)cc1)C(=O)O		inactive
COc1ccc(O[C@H]2C=C[C@@H](c3ccccc3)O[C@H]2CO/N=C\C[C@@H]2C=C[C@H](OC(C)=O)[C@H](COC(C)=O)O2)cc1	inactive: -9.66% [at 11.5 µM]	
COC(=O)C1(C(=O)OC)CC(CO)C(=O)[C@H]1c1ccccc1 (stereo not given in full)	inactive: -10.3%	
C=CCN1CCN(c2nc3ccccc3nc2C#N)CC1	inactive: -3.38%	
CCc1ccc(NC(=O)c2cc(-c3cccs3)on2)cc1	inactive: -17.5%	
C/C(CCN1CCc2nc(-c3ccccc3)c(-c3ccccc3)cc2C1)=N\O[C@@H](C)c1cc(-c2c(C)cc(C)cc2C)no1	inactive: -11.1% [at 11.5 µM]	
Cc1ccc(-c2cc(C(=O)NCc3cnn(C)c3)c3cc(Br)ccc3n2)cc1	inactive: -3.94%	
COc1ccc(C2C(=O)c3ccccc3C2=O)cc1	inactive: -2.7%	
Cc1nn(-c2ccccc2)c(N2CCCC2)c1/C=C1\N=C(c2ccc(OC(C)C)cc2)OC1=O		active: 10 µM
N#Cc1ccc(N=c2ssnc2Cl)cc1		active: 20 µM
Cc1oc(-c2ccccc2)cc1C(=O)Nc1ccc(N(C)C)cc1		active: 12.6 µM
CO[C@H]1COC(=O)[C@@H](C)NC(=O)C/C=C\[C@@H](C)[C@H](OC)COC(=O)C/C=C\[C@@H]1C	inactive: -12.3% [at 11.5 µM]	
COc1ccc(-c2nc(CCNC(=O)c3cccs3)cs2)cc1	inactive: -11.6%	
Cc1ccc2c(c1)c(CC(=O)Nc1ccc(C)c(F)c1)c(C(=O)O)n2C	inactive: 4.23%	
C[C@@]12C(=O)OC(=O)[C@@]1(C)C1CCC2O1	inactive: -4.12%	
COc1cc(/C=N/Nc2ccc(S(N)(=O)=O)cc2[N+](=O)[O-])cc(OC)c1O		active: 1.78 µM
COc1ccc(COc2cc(-c3cccc(OC)c3)nc3ccc(NC(=O)c4ccccc4)cc23)cc1	inactive: -9.46%	
O=C(C1=C[C@@H](c2ccc3c(c2)OCO3)C[C@@H](OCCCCO)O1)N1CCOCC1	inactive: -11.4%	

SMILES	activity, negative = inhibition	Potency
O=[N+]([O-])c1cccc2c(Br)[nH]nc12		inactive
O=C(/C=C/c1cccnc1)/C=C/c1cccnc1		active: 4.47 µM
NC(C(=O)O)c1ccc(P(=O)(O)O)cc1 (stereo not given)	inactive: 3.34%	
CCOCCCNC(=O)C(Cc1ccccc1)NS(=O)(=O)c1ccc2c(c1)c(=O)n(C)c(=O)n2C (stereo not given)	inactive: -3.8%	
O=C(O)/C=C/c1cn(-c2ccccc2)nc1-c1cc2ccccc2o1	inactive: -5.19%	
CCCCC/C=C\CC(O)/C=C/c1cccc(CC(O)CCCCO)n1 (stereo not given)		inactive
CCCCCCCCCCCCC/C=C/[C@@H](O)[C@H](CO)NC(C)=O	inactive: 3.32%	
Cc1nc2c(-c3ccc(F)cc3)c(C)nn2c(C)c1CCC(=O)N1CCN(c2ccccc2)CC1	inactive: -3.92%	
COn1c2c(c3c4nonc4ccc31)CCCC2		active: 14.1 µM
O=C1CCCCC/C1=N/Nc1ccc(OCc2ccccc2)cc1		active: 11.2 µM
CC1CCC(C(C)C)C(OC(=O)Cn2c(-c3ccc(Br)cc3)[n+](C)c3ccccc32)C1 (stereo not given)	inactive: -9.93%	
CCOC(=O)c1cnc2ccccc2c1NCCc1ccc(OC)c(OC)c1	inactive: -14.3%	
Cn1cc(/C=C2\SC(=O)NC2=S)c2ccccc21		active: 2 µM
Nc1c2ccccc2nc2ccccc12 (tested in a mixture with another compound)	inactive: -12.2%	
O=C(c1ccccc1)c1sc(N2CCCCCC2)nc1-c1ccccc1	inactive: -21.8%	
COc1ccc(COc2cc(-c3cccc(OC)c3)nc3ccc(NC(=O)c4ccc(N(C)C)cc4)cc23)cc1	inactive: -18%	
CCOC(=O)/C=C/C(=O)Nc1ccccc1-c1ccccc1NC(=O)/C=C/C(=O)OCC		active: 20 µM
O=C(N/N=C\c1cccc([N+](=O)[O-])c1O)C1COc2ccccc2O1 (stereo not given)		active: 7.94 µM
C[n+]1ccc(/C=N/Nc2nc(Cl)c(C#N)c(Cl)c2Cl)cc1		active: 12.6 µM
C[C@]12CC[C@@H]3c4ccc(O)cc4CC[C@H]3[C@@H]1CCC2=O		inactive
O=C(c1ccc(F)cc1)C1CCN(CCn2c(=O)[nH]c3ccccc3c2=O)CC1	inactive: -10.1%	
CCOC(=O)C1=C[C@]2(CC)CCCN3CCc4c(n1c1ccccc41)[C@@H]32	inactive: -4.25%	
c1ccc(-c2csc(Nc3ccc4c(c3)OCCO4)n2)cc1		active: 12.6 µM

SMILES	activity, negative = inhibition	Potency
COC(=O)CCC(=O)OC1(C)C(=O)C=C2C=C(C3CC3)N(Cc3ccccc3)C=C2C1=O (stereo not given)	inactive: -1.24% [at 11.5 µM]	
CN(C)c1ccc(/C=C/C=C2/SC(=S)N(c3ccccc3)C2=O)cc1		active: 2.51 µM
O=C(NCCc1c[nH]c2ccccc12)[C@@H]1C[C@H]1[C@@H](NP(=O)(c1ccccc1)c1ccccc1)c1ccccc1	inactive: 5.09%	
CC(C)Cn1c(N)c(C(=O)COC(=O)c2cc(C(F)(F)F)nc3c(C(F)(F)F)cccc23)c(=O)n(C)c1=O	inactive: -12.6%	
Cc1cc(N2CCCC2)ccc1/C=N/n1cnnc1		active: 7.08 µM
NC(=O)C1=C[C@H](c2ccc(Br)cc2)C[C@H](OCc2ccc(CO)cc2)O1	inactive: -7.97%	
COc1ccc(NC2=CC(c3ccccc3)N(c3ccc(OC)cc3)C2=O)cc1 (stereo not given)	inactive: -13.7%	
O=C1NC[C@@H](Cc2ccc(O)cc2)N(CCc2cccc3ccccc23)C1=O	inactive: -2.84%	
Nc1ccccc1C#Cc1ccccc1	inactive: -17.9%	
CCCCC1=CC2=CC(=O)C(C)(OC(=O)CCc3ccccc3)C(=O)C2=CO1 (stereo not given)	inactive: -6.13%	
CCc1nc(-c2cc(S(=O)(=O)N3CCN(c4ccc(OC)cc4)CC3)ccc2OC)no1		active: 28.2 µM
CCOC(=O)/C(C#N)=C\c1ccc(N2CCN(C)CC2)cc1	inactive: -19.2%	
CCOC(=O)CNC(=O)O[C@H]1C(=O)c2ccc(OC)cc2O[C@@H]1c1ccc2c(c1)OCO2	inactive: -18.6%	
c1ccc(-c2nnc(CN3CCN(c4ccccc4)CC3)o2)cc1	inactive: -4.53%	
Cc1cccc(/C=C\c2nc3ccccc3c(=O)[nH]2)c1	inactive: -14.8%	
COc1cc(NCCCC(C)N)c2ncccc2c1 (stereo not given)		active: 25.1 µM
Cc1nn(Cc2ccc(Cl)cc2)c(C)c1NC(=O)c1noc2c1CCc1ccccc1-2	inactive: -9.74%	
COC(=O)c1cccc(-n2c(CCC(=O)O)ccc2-c2cccs2)c1	inactive: -10.5%	
CN1CCc2c(sc3c2C(=O)NC(c2cn(Cc4ccccc4)c4ccccc24)N3)C1 (stereo not given)		active: 17.8 µM
CC(=O)n1cc([C@@H]2C=C(C(=O)N3CCOCC3)O[C@H](OCc3ccc(CO)cc3)C2)c2ccccc21	inactive: -11.2%	
COc1cccc(NC(=O)CSc2c3c(nc4ccccc24)CCCC3)c1	inactive: 2.32%	
CCN(CC)c1ccc(/C=C/C(=O)C2C(=O)C=C(C)OC2=O)cc1 (stereo not given)		active: 3.16 µM
C[C@@H](C(=O)NCC1CC1)[C@@H]1C[C@@]1(C)[C@@H](NC(=O)OCc1ccccc1)c1ccccc1		inactive

SMILES	activity, negative = inhibition	Potency
O=C1OC(c2ccccc2)=C/C1=C/N1CCOCC1	inactive: -16.1%	
Nn1nnc2ccccc21	inactive: -3.43%	
CC[C@H](C)[C@@H](NC(=O)O[C@@H]1C(=O)c2cc(OC)ccc2O[C@H]1c1ccc(OC)c(Br)c1)C(=O)OC		inactive
CC(C)c1ccc(C2CC(=O)N3CN(C4CCCCC4)CSC3=C2C#N)cc1 (stereo not given)		active: 22.4 µM
C[C@H](NC(=O)/C(C#N)=C/c1ccc(O)c(O)c1)c1ccccc1	inactive: -7.49%	
CCCCC1=CC2=C(c3ccco3)C(=O)C(C)(OC(=O)c3ccc(OC)cc3)C(=O)C2=CN1CCCN(CC)CC (stereo not given)	inactive: -10.1% [at 11.5 µM]	
O=C(/C=C/NNC(=O)c1ccccc1)c1ccc(Br)cc1		active: 25.1 µM
CCc1ccc2c(Cl)c(C(=O)N/N=C/c3c[nH]c4ccccc34)sc2c1		active: 10 µM
Cc1cc(=O)n2[nH]c(=O)c(N=Nc3ccccc3)c2[nH]1		active: 14.1 µM
CCOc1nc(NC(=O)NS(=O)(=O)Oc2cccc(Cl)c2)nc(-c2ccccc2)n1	inactive: -5.32%	
C#CCNC(=O)C1=C[C@@H](C2CCCCC2)C[C@@H](OCc2ccc(CO)cc2)O1	inactive: -9.28%	
C=CCNC1=C2C[C@@H](C)C[C@H](OC)[C@H](O)[C@@H](C)/C=C(\C)[C@H](OC(N)=O)[C@@H](OC)/C=C/C=C(\C)C(=O)NC(=CC1=O)C2=O	inactive: -23.9% [at 11.5 µM]	
O=C(O)c1ccccc1Nc1ccc([N+](=O)[O-])cc1		active: 10 µM
COc1ccc(N2CCN(C(=O)Nc3ccccc3Cl)CC2)cc1	inactive: -19.4%	
CCCC(=O)n1nc(-c2cccnc2)nc1NCc1ccccc1	inactive: -12.9%	
COc1cc2ccc(=O)oc2c(O)c1OCC=C(C)C	inactive: -0.817%	
CC(C)c1nc(CN(C)C(=O)N[C@H](C(=O)N[C@@H](Cc2ccccc2)C[C@H](O)[C@H](Cc2ccccc2)NC(=O)OCc2cncs2)C(C)C)cs1	inactive: -14.2%	
COC(=O)[C@@]1(Cc2ccc(OC)cc2)[C@H]2c3cc(C(=O)N4CCCC4)n(CCc4c[nH]c5ccc(O)cc45)c3C[C@H]2CN1C(=O)c1ccccc1	inactive: -10.5%	
CC(C)OC(=O)/C(=C/c1ccc2c(c1)c1ccccc1n2C)NC(=O)c1ccccc1	inactive: -9.67%	
COc1ccc(-c2ccc(CCC(=O)O)n2-c2ccccc2O)cc1	inactive: -19.6%	
O=C(O)CCCN1C(=O)/C(=C\c2ccc(-c3nc4ccccc4s3)o2)SC1=S		active: 2.51 µM
